# The list shows a part of the results.
# Key:
# Assay in all cases: glycan array binding signal (z-score within array); higher = stronger binding
# Details in all cases: glycan notation: IUPAC condensed, linker removed
# [1] = biological target: Gal(a1-3)Gal
# In short: (§1)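 From the Consortium for Functional Glycomics database, 3228 arrays were curated, keeping only those whose protein sequence was available. Binding is given as a within-array Z-score averaged across arrays sharing a protein sequence and across linkers. Negative Z-scores can be read as non-binding.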
# [2] = biological target: Gal(a1-3)Gal(b1-3)GlcNAc
# In short: as §1
# [3] = biological target: Gal(a1-3)Gal(b1-3)GlcNAc(b1-2)Man(a1-3)[Gal(a1-3)Gal(b1-3)GlcNAc(b1-2)Man(a1-6)]Man(b1-4)GlcNAc(b1-4)GlcNAc
# In short: as §1
# [4] = biological target: Gal(a1-3)Gal(b1-3)GlcNAc(b1-3)GalNAc
# In short: as §1
# [5] = biological target: Gal(a1-3)Gal(b1-3)[Fuc(a1-4)]GlcNAc(b1-2)Man(a1-3)[Gal(a1-3)Gal(b1-3)[Fuc(a1-4)]GlcNAc(b1-2)Man(a1-6)]Man(b1-4)GlcNAc(b1-4)GlcNAc
# In short: as §1
# [6] = biological target: Gal(a1-3)Gal(b1-4)Glc
# In short: as §1
# [7] = biological target: Gal(a1-3)Gal(b1-4)GlcNAc
# In short: as §1
# [8] = biological target: Gal(a1-3)Gal(b1-4)GlcNAc(b1-3)GalNAc
# In short: as §1
# [9] = biological target: Gal(a1-3)Gal(b1-4)[Fuc(a1-3)]GlcNAc
# In short: as §1
# [10] = biological target: Gal(a1-3)Gal(b1-4)[Fuc(a1-3)]GlcNAc(b1-2)Man(a1-3)[Gal(a1-3)Gal(b1-4)[Fuc(a1-3)]GlcNAc(b1-2)Man(a1-6)]Man(b1-4)GlcNAc(b1-4)GlcNAc
# In short: as §1
# [11] = biological target: Gal(a1-3)GalNAc
# In short: as §1
# [12] = biological target: Gal(a1-3)[Gal(a1-4)]Gal(b1-4)GlcNAc
# In short: as §1
# [13] = biological target: Gal(a1-4)Gal(b1-3)GlcNAc(b1-2)Man(a1-3)[Gal(a1-4)Gal(b1-3)GlcNAc(b1-2)Man(a1-6)]Man(b1-4)GlcNAc(b1-4)GlcNAc
# In short: as §1
# [14] = biological target: Gal(a1-4)Gal(b1-4)Glc
# In short: as §1
# [15] = biological target: Gal(a1-4)Gal(b1-4)GlcNAc
# In short: as §1
# [16] = biological target: Gal(a1-4)Gal(b1-4)GlcNAc(b1-2)Man(a1-3)[Gal(a1-4)Gal(b1-4)GlcNAc(b1-2)Man(a1-6)]Man(b1-4)GlcNAc(b1-4)GlcNAc
# In short: as §1
# [17] = biological target: Gal(a1-4)Gal(b1-4)GlcNAc(b1-3)Gal(b1-4)Glc
# In short: as §1
# [18] = biological target: Gal(a1-4)GlcNAc
# In short: as §1
# [19] = biological target: Gal(a1-6)Glc
# In short: as §1
# [20] = biological target: Gal(b1-2)Gal
# In short: as §1
# [21] = biological target: Gal(b1-3)Gal
# In short: as §1
# [22] = biological target: Gal(b1-3)Gal(b1-4)GlcNAc
# In short: as §1
# [23] = biological target: Gal(b1-3)Gal(b1-4)GlcNAc(b1-2)Man(a1-3)[Gal(b1-3)Gal(b1-4)GlcNAc(b1-2)Man(a1-6)]Man(b1-4)GlcNAc(b1-4)GlcNAc
# In short: as §1
# [24] = biological target: Gal(b1-3)GalNAc
# In short: as §1
# [25] = biological target: Gal(b1-3)GalNAc(a1-3)[Fuc(a1-2)]Gal(b1-4)Glc
# In short: as §1
# [26] = biological target: Gal(b1-3)GalNAc(a1-3)[Fuc(a1-2)]Gal(b1-4)GlcNAc
# In short: as §1
# [27] = biological target: Gal(b1-3)GalNAc(b1-3)Gal(a1-4)Gal(b1-4)Glc
# In short: as §1
# [28] = biological target: Gal(b1-3)GalNAc(b1-4)Gal(b1-4)Glc
# In short: as §1
# [29] = biological target: Gal(b1-3)GalNAc(b1-4)[Neu5Ac(a2-3)]Gal(b1-4)Glc
# In short: as §1
# [30] = biological target: Gal(b1-3)GlcNAc
# In short: as §1
binder,measurement,setting,value
"RS2L (Ralstonia solanacearum), B5RXL5_RALSO (protein) MAQQGVFTLPANTSFGVTAFANAANTQTIQVLVDNVVKATFTGSGTSDKLLGSQVLNSGSGAIKIQVSVNGKPSDLVSNQTILANKLNFAMVGSEDGTDNDYNDGIAVLNWPLG",glycan array binding signal (z-score),[1],-0.251
same,glycan array binding signal (z-score),[2],-0.251
same,glycan array binding signal (z-score),[3],-0.193
same,glycan array binding signal (z-score),[4],-0.245
same,glycan array binding signal (z-score),[5],0.051
same,glycan array binding signal (z-score),[6],-0.243
same,glycan array binding signal (z-score),[7],-0.246
same,glycan array binding signal (z-score),[8],-0.244
same,glycan array binding signal (z-score),[9],-0.238
same,glycan array binding signal (z-score),[10],-0.248
same,glycan array binding signal (z-score),[11],-0.246
same,glycan array binding signal (z-score),[12],-0.247
same,glycan array binding signal (z-score),[13],0.267
same,glycan array binding signal (z-score),[14],-0.244
same,glycan array binding signal (z-score),[15],-0.244
same,glycan array binding signal (z-score),[16],-0.239
same,glycan array binding signal (z-score),[17],-0.246
same,glycan array binding signal (z-score),[18],-0.238
same,glycan array binding signal (z-score),[19],-0.251
same,glycan array binding signal (z-score),[20],-0.247
same,glycan array binding signal (z-score),[21],-0.25
same,glycan array binding signal (z-score),[22],-0.247
same,glycan array binding signal (z-score),[23],-0.227
same,glycan array binding signal (z-score),[24],-0.245
same,glycan array binding signal (z-score),[25],-0.245
same,glycan array binding signal (z-score),[26],-0.241
same,glycan array binding signal (z-score),[27],-0.248
same,glycan array binding signal (z-score),[28],-0.244
same,glycan array binding signal (z-score),[29],-0.238
same,glycan array binding signal (z-score),[30],-0.242
